From the supplement of paper PMC11417369 come the findings set out here.

The other results are listed elsewhere or left out.

This test relates to PfAP2-HC AP2 domain (GST-tagged). The test can be described thus: gcPBM binding intensity (ln(normalized median fluorescence intensity)); higher = stronger DNA binding. Put shortly:
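Binding intensity is the highest Masliner-normalised natural-log median intensity over replicate spots in either probe orientation. To obtain it, GST-tagged P. falciparum DNA-binding domains made in E. coli were incubated for 1 h on an Agilent 4 × 180k array of primer-extended double-stranded 36-bp intergenic genomic probes plus negative controls. Detection used Alexa488 anti-GST antibody with scanning at 488 nm.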
For the sequence “AGTTGTTTTAATAATGCATGTTATTTTATTTTAATA [TGCATGCA_site168]”, the “gcPBM binding intensity (ln)” value came to 9.72.

“TATATATATAGACACACACACACATATATATATATA [CACACA_site9366]”: the “gcPBM binding intensity (ln)” value came to 10.7.

With “GTATATATATATGTATATATTTTATTTTATTTTTAT [CACACA_negctrl_site1439]”, the “gcPBM binding intensity (ln)” value came out at 9.64.

On to “TAGATATATAGACACACACACATTAATACCTATATT [CACACA_site7605]”, for which the “gcPBM binding intensity (ln)” value was 10.7.

With “TGTCATTTAATTTTTTGTACGAAAAAAACATATAAA [XGTACX_site4952]”, the “gcPBM binding intensity (ln)” value worked out at 9.38.

In the case of “TTCTCATCCTTACATACACACACATATATATATATA [CACACA_site7914]”, the “gcPBM binding intensity (ln)” value is 10.1.

As for “TATAATCATAAATACACACACATATATATATATATA [CACACA_site5224]”, the “gcPBM binding intensity (ln)” value worked out at 9.86.

Consider “GTTCAATTATTTTTATGTACATATATTTTTTTCTTT [XGTACX_site2505]”, for which the “gcPBM binding intensity (ln)” value was 9.95.

For “AAATTGGGGCTTGTTACACACTTAGTGTGAGTTCTA [CACACA_site6417]”, the “gcPBM binding intensity (ln)” value worked out at 9.99.

“ATTTATAATATGTATACACACACATATATAAATATA [CACACA_site8729]”: the “gcPBM binding intensity (ln)” value is 9.83.

As to “TATTTATTATAAAAATTGTATAAAATAATAATGCTC [GTGCAC_negctrl_site456]”, the “gcPBM binding intensity (ln)” value stood at 9.49.

On to “GTTATTAAAAACGGGTGTACACATATATAAATATAT [XGTACX_site1234]”, for which the “gcPBM binding intensity (ln)” value worked out at 9.82.

As for “ACTTTTTTAATGTTACGTACACATAAATAATAATTA [XGTACX_site8092]”, the “gcPBM binding intensity (ln)” value turned out to be 9.69.

As to “TTTCACAAATGATATAGTACTTTTTATTATTAACAT [XGTACX_site7976]”, the “gcPBM binding intensity (ln)” value came to 9.64.

Regarding “TTCATTCTATAAAACACACAAATATTTTTGTATCCC [CACACA_site6458]”, the “gcPBM binding intensity (ln)” value was 9.61.

As for “TTTTGTGATCTTACCACCTTTCATAATATTAATAAA [GTGCAC_negctrl_site360]”, the “gcPBM binding intensity (ln)” value is 9.46.

On to “ATATATTTTAATGATACACACAAGAAATAAAATTAC [CACACA_site5671]”, for which the “gcPBM binding intensity (ln)” value worked out at 9.92.

In the case of “ATAGAACAATTCAGAAGTACATAAAAAGAAAAATTT [XGTACX_site3015]”, the “gcPBM binding intensity (ln)” value came out at 9.66.

Take “TTGGATGATTAAGGGGGACACACGTTTATATATTTA [CACACA_site338]”: the “gcPBM binding intensity (ln)” value came to 9.84.

“AAATGTAAAATTTTATGTACATATATTTATATAATA [XGTACX_site3737]”: the “gcPBM binding intensity (ln)” value is 9.56.

“GTTACACCAACAAACACACACACACCGACACCCAAA [CACACA_site5361]”: the “gcPBM binding intensity (ln)” value is 10.6.

Turning to “ACAAATGAGATTATATGTACACATAACAAATTTACA [XGTACX_site3496]”, the “gcPBM binding intensity (ln)” value is 9.87.

Turning to “ATGTTTTATAAAAGGCGTACACATATATTTAAGTAA [XGTACX_site6231]”, the “gcPBM binding intensity (ln)” value was 9.8.

For the sequence “TTTATTTATTTAATTACACACGAACATATAACCATT [CACACA_site7952]”, the “gcPBM binding intensity (ln)” value was found to be 9.77.

For the sequence “TAAAAAAAAAAAAAAGTACACACTTATAAAATATTA [CACACA_site872]”, the “gcPBM binding intensity (ln)” value was 9.62.

In the case of “ATATATTTTTTGAATACACACATATTATATGTAATA [CACACA_site1256]”, the “gcPBM binding intensity (ln)” value came out at 9.7.

In the case of “AATACATAAAAATAAAAATAAAATATAACTAATATG [CACACA_negctrl_site186]”, the “gcPBM binding intensity (ln)” value came out at 9.75.

“TTATACATATATTTAACACACATTTTATAAAGTGCC [CACACA_site1314]”: the “gcPBM binding intensity (ln)” value came out at 9.6.

On to “AAAACTATAATGAATAGTACATAAAAATGGATATAT [XGTACX_site6056]”, for which the “gcPBM binding intensity (ln)” value was found to be 9.91.

Regarding “AATCGATAAAATGTTGTGCACATATTTTTATATTTA [GTGCAC_site9651]”, the “gcPBM binding intensity (ln)” value amounted to 9.71.

With “TTTTGACATTAATTACTATAGTGTTCTTATAAAATT [TGCATGCA_negctrl_site589]”, the “gcPBM binding intensity (ln)” value is 9.62.

Turning to “CATTTTATTTTAATATGTACTTAAAGAAAAAAAATT [XGTACX_site7670]”, the “gcPBM binding intensity (ln)” value came to 9.27.

Turning to “AATATGTATCCATACACACATACATTTTATTTGCAA [CACACA_site874]”, the “gcPBM binding intensity (ln)” value worked out at 9.85.

On to “TTTTATTTATTATTTACACACACGTAGGTGTCCATA [CACACA_site430]”, for which the “gcPBM binding intensity (ln)” value is 10.1.

“TTAAATTACTAATGTGCACACATACTAACGTTTAAA [CACACA_site3573]”: the “gcPBM binding intensity (ln)” value was found to be 9.9.

Turning to “TATCTTATTTTATCTCGTACATAAAATTAAAAAATT [XGTACX_site3636]”, the “gcPBM binding intensity (ln)” value is 9.29.

For the sequence “TATTATAACTAAAAAAATCACATAAAATACTTTATT [CACACA_negctrl_site2]”, the “gcPBM binding intensity (ln)” value was 9.39.

As for “TTATATTTTTTAATTACACACAATTCTTATAAATAT [CACACA_site7870]”, the “gcPBM binding intensity (ln)” value worked out at 9.68.

“TTAACCTTTATATAATACGTATCATCCTCATATATA [CACACA_negctrl_site86]”: the “gcPBM binding intensity (ln)” value came out at 9.74.

As to “ATATAAAATCAACAAAAAAAAAAAATATATATATAT [XGTACX_negctrl_site251]”, the “gcPBM binding intensity (ln)” value turned out to be 9.45.

“TGTATATATTTGTGCACACCAAAGTTTGATTTTATT [CACACA_site1860]”: the “gcPBM binding intensity (ln)” value was found to be 10.1.

With “ATATATAATATATGATGTACTTAATAATTTTTTTTT [XGTACX_site5715]”, the “gcPBM binding intensity (ln)” value is 9.5.

Take “TAATAATCCACAAGCACACACACACCCATATATATA [CACACA_site1267]”: the “gcPBM binding intensity (ln)” value turned out to be 10.8.

For “TTAAGGATCCACGATACACACATATCATTCAACAAA [CACACA_site1924]”, the “gcPBM binding intensity (ln)” value amounted to 9.8.

Consider “TATATACACATGCGCACACACAAGTGGGAAATTTGG [CACACA_site6930]”, for which the “gcPBM binding intensity (ln)” value stood at 10.2.

In the case of “AATATTTGCCTATGTTGTACTGACATTTTTTTAAGT [XGTACX_site6836]”, the “gcPBM binding intensity (ln)” value is 9.73.

Consider TTATTCTAGTAGTGTGTGCGCATGGACAATGCAATA, for which the “gcPBM binding intensity (ln)” value worked out at 10.5.

As for “ATACATATAATATATGCATGTACCAATCAAATATAT [TGCATGCA_site192]”, the “gcPBM binding intensity (ln)” value came to 9.68.

For the sequence “TATATATCGTTATATACACACATGTATATAAAAAAT [CACACA_site7501]”, the “gcPBM binding intensity (ln)” value stood at 9.88.

Regarding “TTATTATATATTTTATTTATTAATAGTATATATTAT [TGCATGCA_negctrl_site155]”, the “gcPBM binding intensity (ln)” value came out at 9.5.

Take “TAATTTTTTTTTATGATACACACTTGGATAATTAAA [CACACA_site562]”: the “gcPBM binding intensity (ln)” value was determined as 9.49.

For “ATATTTTATTTATATACACACACATATATATATTAT [CACACA_site8177]”, the “gcPBM binding intensity (ln)” value is 10.1.

“CTTTATATAAAATAAAGTACATAAATTATGATATAT [XGTACX_site3699]”: the “gcPBM binding intensity (ln)” value came out at 9.52.

In the case of “TTCTTTATATACAAACCAAAATATTATGTATAATAA [CACACA_negctrl_site15]”, the “gcPBM binding intensity (ln)” value amounted to 9.37.

With “TGTAATGTTTACAACACACAAATTAGAAATACAAAA [CACACA_site6924]”, the “gcPBM binding intensity (ln)” value was 9.79.

On to “ACATATTTAAAAACATGTACAAATATATTTATAATT [XGTACX_site661]”, for which the “gcPBM binding intensity (ln)” value came to 9.55.
